From the supplement of paper PMC10037445
Over roughly 2,900 compounds, “NF-kB SEAP reporter activity, fold change vs agonist alone” has its median near 0.99; the highest 2% begin near 2.6. The list shows a part of the results.

Key:
RAW-Dual [1] = test: NF-kB SEAP reporter activity, fold change vs agonist alone; cytotoxicity flag (confluency mask): not cytotoxic; higher = enhanced NF-kB activity
Outline: (§1)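 RAW-Dual macrophages (50,000 cells/well in DMEM, 384-well plates) received 50 nL of library stock by pin tool, then a PRR agonist 1 h later, and were kept at 37 °C, 5% CO2. After 20 hours, supernatant was read for IRF by QuantiLuc luminescence and for NF-κB by QuantiBlue absorbance at 620 nm. Reporter activity is fold change over agonist-alone wells. Cytotoxic wells had IncuCyte confluency below 70% of agonist controls in both mask sets.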

RAW-Dual [2] = test: NF-kB SEAP reporter activity, fold change vs agonist alone; higher = enhanced NF-kB activity
Outline: as §1

RAW-Dual [3] = test: NF-kB SEAP reporter activity, fold change vs agonist alone; cytotoxicity flag (confluency mask): cytotoxic (confluency <70% of control); higher = enhanced NF-kB activity
Outline: as §1

[4] = agonist: ODN 1826 (TLR9) 0.5 ug/mL
[5] = agonist: Pam2CSK4 (TLR2/6) 0.1 ug/mL
[6] = agonist: Pam3CSK4 (TLR2/1) 0.1 ug/mL
[7] = library stock concentration (final ~1000-fold dilution): 10 mM, cytotoxicity flag (confluency mask): not cytotoxic, agonist: Imiquimod (TLR7) […]
[8] = library stock concentration (final ~1000-fold dilution): 10 mM, cytotoxicity flag (confluency mask): not cytotoxic, agonist: MPLA (TLR4) […]

Cl.Cl.OC(CN1CCN(c2cccc(Cl)c2)CC1)C(c1ccccc1)c1ccccc1 (centres undefined) (library stock concentration (final ~1000-fold dilution): 10 mM)
NF-kB SEAP reporter activity (RAW-Dual [1]; agonist: LPS (TLR4) 0.1 ug/mL): 0.841
NF-kB SEAP reporter activity (RAW-Dual [1]; [4]): 1.02
NF-kB SEAP reporter activity (RAW-Dual [1]; [5]): 0.761
NF-kB SEAP reporter activity (RAW-Dual [1]; [6]): 0.956

Cl.Cl.OC(CN1CCN(c2cccc(Cl)c2)CC1)C(c1ccccc1)c1ccccc1 (centres undefined)
NF-kB SEAP reporter activity (RAW-Dual [2]; [7]): 1.33
NF-kB SEAP reporter activity (RAW-Dual [2]; [8]): 1.04

Cc1nc(Nc2ncc(C(=O)Nc3c(C)cccc3Cl)s2)cc(N2CCN(CCO)CC2)n1.O
NF-kB SEAP reporter activity (RAW-Dual [2]; [7]): 0.326
NF-kB SEAP reporter activity (RAW-Dual [2]; [8]): 0.715

Cc1nc(Nc2ncc(C(=O)Nc3c(C)cccc3Cl)s2)cc(N2CCN(CCO)CC2)n1.O (library stock concentration (final ~1000-fold dilution): 10 mM)
NF-kB SEAP reporter activity (RAW-Dual [1]; agonist: LPS (TLR4) 0.1 ug/mL): 1.33
NF-kB SEAP reporter activity (RAW-Dual [1]; [4]): 0.661
NF-kB SEAP reporter activity (RAW-Dual [1]; [5]): 0.283
NF-kB SEAP reporter activity (RAW-Dual [1]; [6]): 0.215

Cc1ccc(C(=O)O)c(O)c1 (library stock concentration (final ~1000-fold dilution): 10 mM)
NF-kB SEAP reporter activity (RAW-Dual [1]; agonist: LPS (TLR4) 0.1 ug/mL): 0.77
NF-kB SEAP reporter activity (RAW-Dual [1]; [4]): 0.99
NF-kB SEAP reporter activity (RAW-Dual [1]; [5]): 0.948
NF-kB SEAP reporter activity (RAW-Dual [1]; [6]): 0.723

Cc1ccc(C(=O)O)c(O)c1
NF-kB SEAP reporter activity (RAW-Dual [2]; [7]): 0.973
NF-kB SEAP reporter activity (RAW-Dual [2]; [8]): 1.05

CCOC(=O)NCCCC(=O)NCCc1ccccc1
NF-kB SEAP reporter activity (RAW-Dual [2]; [7]): 0.961
NF-kB SEAP reporter activity (RAW-Dual [2]; [8]): 0.985

CCOC(=O)NCCCC(=O)NCCc1ccccc1 (library stock concentration (final ~1000-fold dilution): 10 mM)
NF-kB SEAP reporter activity (RAW-Dual [1]; agonist: LPS (TLR4) 0.1 ug/mL): 1.31
NF-kB SEAP reporter activity (RAW-Dual [1]; [4]): 0.995
NF-kB SEAP reporter activity (RAW-Dual [1]; [5]): 1.17
NF-kB SEAP reporter activity (RAW-Dual [1]; [6]): 1.06

Cc1cccc(C)c1OCC(=O)NC(Cc1ccccc1)C(O)CC(Cc1ccccc1)NC(=O)C(C(C)C)N1CCCNC1=O (centres undefined)
NF-kB SEAP reporter activity (RAW-Dual [2]; [7]): 1.63
NF-kB SEAP reporter activity (RAW-Dual [2]; [8]): 2.06

Cc1cccc(C)c1OCC(=O)NC(Cc1ccccc1)C(O)CC(Cc1ccccc1)NC(=O)C(C(C)C)N1CCCNC1=O (centres undefined) (library stock concentration (final ~1000-fold dilution): 10 mM)
NF-kB SEAP reporter activity (RAW-Dual [1]; agonist: LPS (TLR4) 0.1 ug/mL): 1.37
NF-kB SEAP reporter activity (RAW-Dual [1]; [4]): 2.09
NF-kB SEAP reporter activity (RAW-Dual [1]; [5]): 0.396
NF-kB SEAP reporter activity (RAW-Dual [1]; [6]): 1.03

COc1cc2c(cc1NS(=O)(=O)c1ccc(Br)cc1C)n(C)c(=O)n2C (library stock concentration (final ~1000-fold dilution): 10 mM)
NF-kB SEAP reporter activity (RAW-Dual [1]; agonist: LPS (TLR4) 0.1 ug/mL): 1.73
NF-kB SEAP reporter activity (RAW-Dual [1]; [4]): 1.23
NF-kB SEAP reporter activity (RAW-Dual [1]; [5]): 0.828
NF-kB SEAP reporter activity (RAW-Dual [1]; [6]): 1.08

COc1cc2c(cc1NS(=O)(=O)c1ccc(Br)cc1C)n(C)c(=O)n2C
NF-kB SEAP reporter activity (RAW-Dual [2]; [7]): 0.973
NF-kB SEAP reporter activity (RAW-Dual [2]; [8]): 1.39

Cl.NCCCC(N)(C(=O)O)C(F)F.O (centres undefined)
NF-kB SEAP reporter activity (RAW-Dual [2]; library stock concentration (final ~1000-fold dilution): 10 mM water, cytotoxicity flag (confluency mask): not cytotoxic, agonist: Imiquimod (TLR7) […]): 1.01
NF-kB SEAP reporter activity (RAW-Dual [2]; library stock concentration (final ~1000-fold dilution): 10 mM water, cytotoxicity flag (confluency mask): not cytotoxic, agonist: MPLA (TLR4) […]): 1.04

Cl.NCCCC(N)(C(=O)O)C(F)F.O (centres undefined) (library stock concentration (final ~1000-fold dilution): 10 mM water)
NF-kB SEAP reporter activity (RAW-Dual [1]; agonist: LPS (TLR4) 0.1 ug/mL): 0.872
NF-kB SEAP reporter activity (RAW-Dual [1]; [4]): 1.08
NF-kB SEAP reporter activity (RAW-Dual [1]; [5]): 1.07
NF-kB SEAP reporter activity (RAW-Dual [1]; [6]): 0.953

CNCCC=C1c2ccccc2CCc2ccccc21.Cl (library stock concentration (final ~1000-fold dilution): 10 mM)
NF-kB SEAP reporter activity (RAW-Dual [3]; agonist: LPS (TLR4) 0.1 ug/mL): 1.44
NF-kB SEAP reporter activity (RAW-Dual [3]; [4]): 0.95
NF-kB SEAP reporter activity (RAW-Dual [3]; [5]): 0.632
NF-kB SEAP reporter activity (RAW-Dual [3]; [6]): 0.645

CNCCC=C1c2ccccc2CCc2ccccc21.Cl
NF-kB SEAP reporter activity (RAW-Dual [2]; library stock concentration (final ~1000-fold dilution): 10 mM, cytotoxicity flag (confluency mask): cytotoxic (confluency <70% of control), agonist: Imiquimod (TLR7) […]): 1.94
NF-kB SEAP reporter activity (RAW-Dual [2]; library stock concentration (final ~1000-fold dilution): 10 mM, cytotoxicity flag (confluency mask): cytotoxic (confluency <70% of control), agonist: MPLA (TLR4) […]): 1.7

Cc1nn(CC(F)(F)F)cc1Nc1ncc(Br)c(NCc2ccc(S(N)(=O)=O)cc2)n1 (library stock concentration (final ~1000-fold dilution): 10 mM)
NF-kB SEAP reporter activity (RAW-Dual [1]; agonist: LPS (TLR4) 0.1 ug/mL): 0.744
NF-kB SEAP reporter activity (RAW-Dual [1]; [4]): 1.28
NF-kB SEAP reporter activity (RAW-Dual [1]; [5]): 1.17
NF-kB SEAP reporter activity (RAW-Dual [1]; [6]): 1.54

Cc1nn(CC(F)(F)F)cc1Nc1ncc(Br)c(NCc2ccc(S(N)(=O)=O)cc2)n1
NF-kB SEAP reporter activity (RAW-Dual [2]; [7]): 1.38
NF-kB SEAP reporter activity (RAW-Dual [2]; [8]): 1.33
